Laboratory results from PubChem BioAssay AID488969 (Vanderbilt High Throughput Screening Facility, 2010).
Over roughly 110,000 compounds, “z-score” has its median near -0.1; the highest 2% begin near 2. Some of the results follow.

Molecular target: Metabotropic glutamate receptor 8 (Rattus norvegicus) (UniProt P70579)
Experiment: mGluR8 Gi/Go-coupled signaling modulation – cell-based, rat, thallium flux, HTS, primary screen (AID 488969)
Conditions: HEK293 rat mGluR8, GIRK (G protein-gated inwardly rectifying potassium channel) thallium flux, FluoZin2; at 10 µM; stronger effect = higher value; submaximal glutamate (EC20) added with thallium

Chain of UniProt P70579 (P70579 whole entry, looked up): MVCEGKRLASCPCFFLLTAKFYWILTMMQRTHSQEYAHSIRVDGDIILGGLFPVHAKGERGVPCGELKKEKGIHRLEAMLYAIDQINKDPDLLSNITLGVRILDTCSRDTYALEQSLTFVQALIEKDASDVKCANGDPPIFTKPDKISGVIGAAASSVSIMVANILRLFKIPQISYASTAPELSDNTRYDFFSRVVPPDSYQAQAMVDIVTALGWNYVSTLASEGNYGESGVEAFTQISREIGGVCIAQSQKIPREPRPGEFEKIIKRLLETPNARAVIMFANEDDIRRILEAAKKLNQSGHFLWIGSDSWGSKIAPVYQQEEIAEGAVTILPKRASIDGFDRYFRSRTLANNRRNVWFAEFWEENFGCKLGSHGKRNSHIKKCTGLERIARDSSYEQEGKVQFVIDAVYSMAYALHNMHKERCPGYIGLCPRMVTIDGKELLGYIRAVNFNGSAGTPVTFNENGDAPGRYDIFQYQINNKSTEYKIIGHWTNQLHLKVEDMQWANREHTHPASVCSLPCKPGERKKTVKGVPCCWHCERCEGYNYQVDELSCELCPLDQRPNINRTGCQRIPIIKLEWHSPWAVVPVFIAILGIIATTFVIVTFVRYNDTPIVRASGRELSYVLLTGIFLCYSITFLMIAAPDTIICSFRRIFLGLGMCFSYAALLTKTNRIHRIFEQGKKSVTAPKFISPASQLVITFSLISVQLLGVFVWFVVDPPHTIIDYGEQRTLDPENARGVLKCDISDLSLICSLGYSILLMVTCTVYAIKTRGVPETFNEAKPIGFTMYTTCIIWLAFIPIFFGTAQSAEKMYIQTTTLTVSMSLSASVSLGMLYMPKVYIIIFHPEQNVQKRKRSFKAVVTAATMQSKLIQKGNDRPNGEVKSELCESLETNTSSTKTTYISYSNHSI

Structure (SMILES) | z-score
CCCc1ccc(-c2ccc(F)c(N)c2)nc1 | -0.197
O=C1OC(Cc2ccccn2)C(O)=C1C1=NCCCN1 (stereo not given) | -0.297
COc1ccccc1S(=O)(=O)Cc1ccc(C(=O)NCc2cccs2)o1 | 0.352
COC(=O)c1cccc(NC(=S)Nc2cccc(Cl)c2Cl)c1 | 2.5
Cc1cccc(C)c1Nc1nnc(SCC(=O)NC2CCS(=O)(=O)C2)s1 (stereo not given) | -0.0985
CCn1cc([N+](=O)[O-])c(C(=O)Nc2cc(C)on2)n1 | 0.0332
COc1ccc(NS(=O)(=O)c2cccc(N/C(=N\S(=O)(=O)c3ccccc3)c3ccc(F)cc3)c2)cc1 | -1.31
COc1ccc2c(c1)C1C=CCC1C(c1cc3c(cc1Br)OCO3)N2 (stereo not given) | -0.214
Cc1cc(N2CC(=O)N(CCc3ccccc3)C(=O)C2)n2ncnc2n1 | 0.186
CN(C)c1nc(Nc2ccc(Cl)cc2)nc(OCC#N)n1 | -0.137
COC(=O)Nc1ccc2ncn(C)c(=O)c2c1 | 0.00144
CCOC(=O)CC(NC(=O)C1c2ccccc2Oc2ccccc21)c1ccc(C)cc1 (stereo not given) | -0.0467
CS(=O)(=O)N1CCc2cc(-c3csc(NC(=O)Cc4cccs4)n3)ccc21 | -0.429
CCOC(=O)COc1c(-c2ccc(OC)cc2)oc2ccccc2c1=O | -0.598
COc1ccc(-c2cc3nc(C)c(CCC(=O)NCc4ccco4)c(C)n3n2)c(OC)c1 | -1.03
Cc1nc(N)nc(Nc2ccc(Cl)cc2)c1Br | 0.259
COC(=O)c1nn(C23CC4CC(CC(C4)C2)C3)c2c1C(=O)N(c1ccc(Br)cc1)C2=O | -0.268
COc1ccc2ccc3c(c2c1)N=CC1(O3)N(C)c2ccccc2C1(C)C (stereo not given) | 0.592
COC(=O)N1CC(=O)N(OC)C1c1ccc(Cl)cc1Cl (stereo not given) | 0.0679
CCCNC(=O)COc1ncnc2sc(C)c(C)c12 | 0.229
Cc1ccc(C)c(NC(=O)CCN2CC(C)OC(C)C2)c1 (stereo not given) | 0.575
CCOC(=O)N1CCN(Cc2nc3c(c(=O)n(C)c(=O)n3C)n2Cc2ccc(F)cc2)CC1 | -0.117

Structure (SMILES) | z-score
CCOC(=O)N1CCC(NC(=O)c2cccc3c2C(=O)N(c2ccc(OC)cc2)C3)CC1 | -1.84
O=C(c1ccc(S(=O)(=O)N2CCOCC2)cc1)N1CCCc2ccccc21 | 0.144
Cn1c(N/N=C/c2ccccc2)nc2sc3c(c2c1=O)CCC3 | 1.3
CN(C)c1ccc(/C=C/c2nnnn2-c2ccccc2)cc1 | -0.556
O=C(Nc1c(F)c(F)c(F)c(F)c1F)NC1CCCCC1 | 0.0762
CCOc1c(CNCCN2CCOCC2)cccc1OC | -0.0524
CN1CCN(c2nc(-c3ccccn3)nc3ccccc23)CC1 | 0.153
CCCc1ccc(C2C3=C(CC(C)(C)CC3=O)NC3=C2C(=O)c2ccccc23)cc1 (stereo not given) | 0.441
C=CCn1c(-c2ccc(OC)c(OC)c2)cs/c1=N\c1ccccn1 | 0.586
COc1cccc(CC(NC(C)=O)C(=O)NC2CCN(c3nnnn3-c3ccccc3)CC2)c1 (stereo not given) | -0.912
COc1cc(NC(=O)c2ccc(COc3ccccc3Br)o2)cc(OC)c1OC | -0.932
O=C(Cn1c(=O)c2sccc2n(Cc2ccc([N+](=O)[O-])cc2)c1=O)NCCc1ccccc1 | 0.132
COc1ccc(/C=N/NC(=O)CSCC(=O)Nc2ccccc2)cc1OC | -0.141
COc1ccccc1C(=O)N1CCN(C(=O)c2ccncc2)CC1 | 0.136
N#C/C(=C1/CCCN1)c1ccccn1 | -0.173
O=C(c1ccc(Cn2cc(Br)cn2)o1)N1N=C(C(F)F)CC1(O)C(F)F (stereo not given) | 0.214
CN(Cc1ccccc1)c1nc2c(c(=O)[nH]c(=O)n2C)n1CCOc1ccccc1 | -0.489
O=C(/C=C/c1c(F)cccc1Cl)c1ccc(F)cc1 | 0.00886
COc1cc(OC)cc(-c2nnc(SCC(=O)N(C(C)C)C(C)C)o2)c1 | -0.176
COc1ccccc1NC(=O)C1CCCCC1 | 0.254
O=C(CCCCCn1c(=S)[nH]c2cc3c(cc2c1=O)OCO3)N1CCN(C2CCCCC2)CC1 | -1.45
COc1ccc(OC)c(NC(=O)C2C3CC4OC(=O)C2C4C3)c1 (stereo not given) | -0.324

Structure (SMILES) | z-score
O=C1c2ccccc2C(=O)N1CCSC(=S)N1CCOCC1 | -0.252
Cc1cc(CN2C(=O)c3ccccc3C2=O)on1 | -0.146
Cc1ccc(CCNS(=O)(=O)c2ccc(C)cc2)cc1 | -0.791
O=C(CNC(=O)c1ccc2ccccc2c1)OCC(=O)N1CCN(S(=O)(=O)c2ccc3ccccc3c2)CC1 | -0.263
CS(=O)(=O)N1CCN(C/C=C/c2ccccc2)CC1 | -0.0638
CCCC(=O)Nc1nnc(CCOC)s1 | -0.191
COc1ccc(OC)c2[nH]c(=O)c(CCNC(=O)c3ccc(S(=O)(=O)N(C)C)cc3)cc12 | 0.354
N#C/C(=C/c1ccc(-c2ccc(S(N)(=O)=O)cc2)o1)C(=O)Nc1ccccc1 | -0.292
CC(NC(=O)c1ccccc1NC(=O)c1ccco1)C(=O)O (stereo not given) | 0.586
CCC1CSC(Nc2ccc(C(=O)/C=C/c3ccc(Oc4ccccc4)cc3)cc2)=N1 (stereo not given) | 0.0568
CCCCCc1nc2sc3c(c2c(=O)n1N)CCC3 | -0.252
O=C1c2ccccc2C(=O)N1CCCCN(C(=O)c1cc([N+](=O)[O-])cc([N+](=O)[O-])c1)c1ccc(Cl)cc1 | 0.128
FC(F)(F)c1cc(Oc2ccccc2Cl)nc(-c2ccccn2)n1 | -0.561
COc1ccc(S(=O)(=O)N(Cc2nc3ccccc3c(=O)[nH]2)C2CCCC2)cc1 | 2.49
CCOC(=O)c1ccccc1NC(=O)c1c(F)c(F)c(F)c(F)c1F | 0.361
COc1ccc(OC)c(-c2csc(NC(=O)CSc3ccc(Br)cc3)n2)c1 | -0.0826
O=C(CSc1nnnn1-c1ccc(F)cc1)NC1CCCCC1 | -0.158
Nc1ccc(Cl)c(-c2nc3ncccc3o2)c1 | 0.714
O=C(COC(=O)c1ccc(Cl)c(Cl)c1)Nc1cccnc1Cl | -0.19
Cc1ccc(C(=O)NC(=C(Cl)Cl)S(=O)(=O)c2ccc(C)cc2)cc1 | -0.083
CCCC(=O)Nc1cc2c(cc1C(=O)c1ccccc1)OCCO2 | 0.117
c1ccc(COc2cccc(CN3CCN(c4ccccn4)CC3)c2)cc1 | -0.187

Structure (SMILES) | z-score
Cc1ccc2nc(C)cc(Nc3ccc4c(c3)OCCO4)c2c1 | 1.52
O=C(COC(=O)CCSc1ccc(Cl)cc1)NCCc1ccccc1 | 0.00426
Cc1[nH]c(=O)[nH]c(=O)c1/C=C/C(=O)OCC(C)C | 0.104
O=C(O)CC(C(=O)OCC1CCCO1)N1CCOCC1 (stereo not given) | 1.13
Cn1c(SCC(=O)N2c3ccccc3Sc3ccccc32)nc2ccccc21 | -0.00612
CC12CNCC(C)(CN(C(c3ccccc3)c3ccccc3)C1)C2 | 1.25
CNC(=O)/C(=C\c1ccc([N+](=O)[O-])cc1)NC(C)=O | 0.421
Cc1[nH]c2ccccc2c1N=Nc1cccc(C(=O)O)c1 | 0.00376
Cc1nc(N2CCN(S(=O)(=O)c3ccccc3)CC2)c2c3c(sc2n1)CC(C)CC3 (stereo not given) | -0.0532
CC1(C)CC(CC(=O)O)(c2ccccc2)CCO1 (stereo not given) | 0.215
NC(=O)N1CCCC1C(=O)Nc1ccc(Cl)c(Cl)c1 (stereo not given) | 0.0276
O=S(=O)(c1ccc2ccccc2c1)N1CCN(S(=O)(=O)N2CCCCC2)CC1 | 0.336
CCOc1ccccc1NC(=O)c1ccc(NC(=O)c2ccco2)cc1 | 0.535
Cc1ccc(/C=N/NC(=O)CSc2nc3ccccc3c(=O)n2-c2ccccc2C)s1 | -0.0572
O=C(CN1CCN(C(=O)c2cccs2)CC1)Nc1ccc(Br)cc1 | -1.01
CCc1ccc2c(c1)/C(=N/N(C)C(=S)NC)C(=O)N2 | -0.0814
Cc1ccc(SCc2cc(=O)[nH]c(N3CCN(Cc4ccccc4)CC3)n2)cc1 | 0.288
COc1cc(/C=N/N(C)c2ccccc2)cc(Cl)c1O | -0.687
O=C(CN1CCN(c2ccccc2)CC1)Nc1nccs1 | 0.793
Cc1c(Cl)cccc1NC(=O)Nc1ccc(C(=O)N2CCCC2)cc1 | -0.14
CCn1nnnc1SCC(=O)N1CCCc2ccccc21 | -0.233
CC(Oc1ccccc1F)C(=O)/C=C/N(C)C (stereo not given) | 0.324

Structure (SMILES) | z-score
O=C(CSc1ccsc1[N+](=O)[O-])N1CCN(c2ccc(Cl)cc2)CC1 | -0.448
Cc1onc(-c2ccccc2)c1C(=O)Nc1nnc(COc2ccc(Cl)cc2)s1 | 0.756
CCOC(=O)c1ccc(NC(=O)CN2C(=O)C(=O)N(CC(C)C)C2=O)cc1 | -0.346
CCOC(=O)c1c(N2C(=O)Nc3ccccc3N2O)sc2c1CCCC2 | -0.5
Cc1ccc(S(=O)(=O)NCCC(=O)NC2CCCC2)cc1 | 0.757
CCNc1ccc(C(=O)OCC)cc1NC(=O)c1cc(S(=O)(=O)N2CCOCC2)ccc1C | -0.288
O=C(O)CC1S/C(=N\N=C/c2ccccc2)N(c2ccc(O)cc2)C1=O (stereo not given) | -0.0484
CC(=O)c1c(C)nc2nonc2c1N | 0.36
CCOC(=O)c1ccc(-c2n[nH]c(=O)c3ccccc23)cc1 | -0.666
Cc1cccc(NC(=O)CC23CC4CC(C2)CC(n2nnc(C)n2)(C4)C3)c1 | -0.706
COc1ccc(C)cc1-n1nnnc1SCc1nc2ccccc2s1 | 0.233
CC1=NN(c2cccc(Cl)c2)C(=O)C12CC(C)=C(C)CS2 (stereo not given) | 0.772
O=C(NCCc1c[nH]c2ccccc12)c1ccc(S(=O)(=O)NCc2ccco2)cc1 | -0.369
COc1cc2[nH]c(=O)n(C3CCCCC3)c(=O)c2cc1OC | -0.246
CCOC(=O)c1c(NC(=O)CSc2nnc3c(n2)[nH]c2ccc(F)cc23)sc(C(C)=O)c1C | -0.0188
COc1ccc(OC)c(C(=O)CC2OC(=O)c3ccccc32)c1 (stereo not given) | -0.0969
COc1ccc(/C=N/NC(=O)c2cccc([N+](=O)[O-])c2)cc1OC(=O)c1ccccc1 | -0.358
COc1cc2c(cc1OC)-c1nnc(-c3cccs3)n1C1(CCCC1)C2 | -0.197
Cc1nn(C)c(Oc2ccc(Cl)cc2)c1C=O | -0.135
CCN(CCNC(=O)C1CCN(Cc2nc(-c3ccc(Cl)cc3)oc2C)CC1)c1ccccc1 | 1.3
O=C(c1ccccc1-c1nc2ccccc2[nH]1)N1CCCCC1 | 0.101
COc1ccc(/C=N\N=C2/SC(CC(=O)O)C(=O)N2c2ccc(O)cc2)cc1 (stereo not given) | -0.0572
